Test results as given in paper PMC4336329 (PLoS ONE, 2015).
In all, about 310,000 compounds went through this assay and about 2,200 (0.71%) showed an effect of 50% or more. Effects have a minus sign here. Some of the results follow.

Each molecule was assayed against human ether-à-go-go-related gene (hERG) potassium channel (human, UniProt Q12809) (assay: primary screen, population patch clamp on CHO cells stably expressing hERG).
Chain of human ether-à-go-go-related gene (hERG) potassium channel (Q12809 whole entry, looked up): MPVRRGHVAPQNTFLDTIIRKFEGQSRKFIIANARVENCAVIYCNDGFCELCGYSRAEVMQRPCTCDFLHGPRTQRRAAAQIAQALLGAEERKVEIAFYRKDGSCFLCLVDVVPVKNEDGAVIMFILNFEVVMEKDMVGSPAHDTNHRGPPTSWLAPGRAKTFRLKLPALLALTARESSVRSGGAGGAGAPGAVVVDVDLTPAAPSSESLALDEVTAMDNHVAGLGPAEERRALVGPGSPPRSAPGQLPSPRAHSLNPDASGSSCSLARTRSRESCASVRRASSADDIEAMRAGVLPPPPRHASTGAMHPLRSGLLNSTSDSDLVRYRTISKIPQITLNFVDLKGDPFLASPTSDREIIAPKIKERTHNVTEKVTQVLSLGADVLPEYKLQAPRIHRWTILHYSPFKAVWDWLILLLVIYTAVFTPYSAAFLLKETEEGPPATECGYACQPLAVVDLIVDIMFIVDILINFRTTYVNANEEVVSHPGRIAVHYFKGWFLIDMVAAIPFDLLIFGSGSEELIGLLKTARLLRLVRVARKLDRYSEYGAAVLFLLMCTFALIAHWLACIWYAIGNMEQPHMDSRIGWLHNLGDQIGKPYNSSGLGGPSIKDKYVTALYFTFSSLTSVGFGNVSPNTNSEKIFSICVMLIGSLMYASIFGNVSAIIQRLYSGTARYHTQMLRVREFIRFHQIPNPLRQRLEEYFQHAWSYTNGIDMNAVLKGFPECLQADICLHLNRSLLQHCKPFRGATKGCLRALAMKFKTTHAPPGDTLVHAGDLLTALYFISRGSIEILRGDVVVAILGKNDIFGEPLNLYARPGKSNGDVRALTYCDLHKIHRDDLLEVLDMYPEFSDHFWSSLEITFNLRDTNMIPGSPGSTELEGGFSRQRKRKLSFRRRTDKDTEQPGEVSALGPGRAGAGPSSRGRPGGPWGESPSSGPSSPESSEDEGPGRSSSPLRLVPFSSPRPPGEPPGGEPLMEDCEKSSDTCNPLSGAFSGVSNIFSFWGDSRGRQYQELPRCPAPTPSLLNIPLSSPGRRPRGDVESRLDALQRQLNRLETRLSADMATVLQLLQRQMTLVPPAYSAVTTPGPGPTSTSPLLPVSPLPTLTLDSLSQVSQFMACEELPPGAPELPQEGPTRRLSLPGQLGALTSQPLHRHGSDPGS

Point of comparison: CN(C)c1ccc(C(=S)N2CCN(S(=O)(=O)c3ccccc3)CC2)cc1, “hERG current change (%, negative = inhibition) at 1uM” value 10.3%. Against it:
- COc1ccc(Cl)cc1S(=O)(=O)NC(C)C(=O)NCc1ccc2c(c1)OCO2 (stereo not shown) — lower, 7.77%
- NNC(=S)Nc1c(Br)cc(F)cc1Br — higher, 13.1%
- Cc1ccccc1NC(=O)CSc1nc2cc3c(cc2cc1C)CCC3 — higher, 12.7%
- CC(C)CNC(=O)CC(=O)N/N=C/c1cccs1 — lower, 8.81%
- O=C(c1cccnc1)N1CCN(C(=O)c2ccco2)CC1 — higher, 11.1%
- CC(/C=C1\SC(=O)N(CCCC(=O)O)C1=O)=C\c1ccccc1 — higher, 11.9%
- O=C(Oc1ccc2[nH]cc(CCN3C(=O)c4ccccc4C3=O)c2c1)c1ccco1 — lower, 9.71%
- O=C(c1ccc(=O)[nH]c1)N(Cc1ccco1)C1(C(=O)NC2CCCCC2)CCCCC1 — lower, -9.41%
- Cc1ccc(-c2nc3sc(C(N)=O)c(N)c3c3c2CCCC3)cc1 — the same, 10.3%
- Cc1nc(NC(=S)NC(=O)c2ccco2)sc1C(=O)N(C)C — lower, 10.2%
- CCn1cc(C(=O)NCc2ccc(OC)cc2)c(=O)c2ccc(C)nc21 — higher, 24.9%
- Cc1ccc(S(=O)(=O)NCc2c(-c3ccccc3)noc2C)cc1 — lower, 1.72%
- O=C(c1ccnc(Cl)c1)N1CCCC(N2CCN(c3ccccc3F)CC2)C1 (stereo not shown) — lower, -0.839%
- O=C(CCn1c(=O)[nH]c2ccccc2c1=O)N1CCN(c2cccc(C(F)(F)F)c2)CC1 — lower, -5.77%
- Cc1ccc(S(=O)(=O)CCC(=O)OCC(=O)N(C)CC(=O)Nc2ccc(F)cc2)cc1 — lower, -1.74%
- CC1CCN(CCc2nc3cc(NC(=O)COc4ccc(Cl)cc4)ccc3n2C)CC1 — lower, -60.7%
- O=C(CCCCCN1C(=O)CCC1=O)Nc1ccc(Cl)c(C(F)(F)F)c1 — lower, -8.08%
- O=C(CCNC(=O)c1ccccc1Cl)NCCCSc1ccccc1 — lower, 9.29%
- Cn1c(=O)c(=O)n(C)c2cc(N3CCOCC3)c(NS(=O)(=O)c3ccc(F)c(Cl)c3)cc21 — lower, 7.97%
- CCCCC(c1nnnn1CS(=O)(=O)c1ccc(C)cc1)N1CCN(c2ccccc2)CC1.Cl (stereo not shown) — higher, 14%
- CCON1C(=O)C(C)(C)N(OCC)C(=O)C1(C)C — higher, 12%
- S=C(NC1CCCCC1)N1CCn2cccc2C1c1ccncc1 (stereo not shown) — lower, 6.91%
- Cc1c(OCC(=O)N2CCC(C(N)=O)CC2)ccc2c3c(c(=O)oc12)CCC3 — lower, 9.36%
- CCn1cc(C(=O)NCCCOC)c(=O)c2cc(S(=O)(=O)N(C)C3CCCCC3)ccc21 — lower, -2.67%
- O=C(Nc1ccccc1)C1=C[C@@H](c2csc3ccccc23)C[C@@H](OCc2ccc(CO)cc2)O1 — higher, 17%
- CCOC(=O)c1ccc(N=C2SC(C(=O)NC)CC(=O)N2CCc2ccccc2)cc1 (stereo not shown) — higher, 11.7%
- CCCCc1c(O)nc(SCC(=O)N2CCOCC2)n(-c2ccccc2C)c1=O — higher, 13.5%
- CCn1c(C(=O)N2CCCC(C(=O)NCCCc3ccccc3)C2)cc2sccc21 (stereo not shown) — lower, -0.181%
- CCC(=O)N(CCc1ccccc1)Cc1cc2cc3c(cc2[nH]c1=O)OCO3 — lower, 7.52%
- COC(=O)c1cc(S(=O)(=O)NCCc2ccc(Cl)cc2)c[nH]1 — lower, 6.44%
- C(=N\N1CCN(Cc2cccc3ccccc23)CC1)/c1cccnc1 — lower, -4.62%
- Cc1cc(NC(=O)Nc2ccccc2)n(C(C)(C)C)n1 — higher, 16.7%
- CC1CN(C(=S)SCCN2C(=O)CCC2=O)CC(C)O1 (stereo not shown) — lower, 6.36%
- CCOC(=O)c1cn2nc(Oc3ccc(C#N)cc3)ccc2n1 — lower, -11.1%
- CCC(=O)NC(c1ccc(N(C)C)cc1)c1c(O)ccc2ccccc12 (stereo not shown) — lower, 8.7%
- CC/C(=N\Nc1ccnc2cc(Cl)ccc12)c1ccc(O)cc1 — higher, 15%
- CC(Sc1nnc(-c2ccccc2Br)o1)C(=O)N1CCOCC1 (stereo not shown) — lower, -1.79%
- Cc1cc(-c2ccccc2)nc(N(C)NC(=O)C(C)(C)C)c1S(C)(=O)=O — lower, 7.88%
- CN(Cc1ccc(F)cc1)C(=O)CNC(=O)C1CCCCC1 — higher, 12%
- O=C(COC(=O)COc1ccccc1)Nc1ccc(OC(F)(F)F)cc1 — higher, 11.5%
- Cc1ccccc1CNC(=O)C1CCCN(c2cnccn2)C1 (stereo not shown) — lower, 8.47%
- O=C(CSc1nnc(NC(=O)C2CC2)s1)Nc1ccccc1C(F)(F)F — higher, 14%
- O=C(O)c1nsc(Cl)c1Cl — higher, 19.4%
- COc1ccc2c(c1)O[C@H]1c3ccc(O)cc3OC[C@@H]21 — lower, 9.08%
- CCOC(=O)c1c(NC(C)=O)sc2c(OCC(O)CNC(C)(C)C)c(Br)ccc12 (stereo not shown) — lower, 6.13%
- CCCOc1cccc(-c2cc(-c3n[nH]c(=S)n3CC)c3ccccc3n2)c1 — lower, 3.32%
- O=C(O)c1ccccc1NCc1ccncc1 — lower, 9.19%
- S=C(Nc1cccc2ccccc12)NC1CCCCC1 — higher, 12%
- CCOC(=O)Cc1csc(NC(=O)c2ccc(OC)c(OC)c2)n1.Cl — lower, -6.29%
- NC(=O)c1nsc(C(=O)N(CCCN2CCOCC2)C(C(=O)NC2CCCCC2)c2ccc(Cl)cc2)c1N (stereo not shown) — lower, 1.54%
- O=c1[nH]c(SCc2n[nH]c(=S)n2-c2ccccc2)nc2sc3c(c12)CCC3 — higher, 15%
- CC(=O)c1cc(CN2C(=O)CCC2=O)cs1 — lower, 7.8%
- COc1ccc(CC(=O)Nc2ccc(C(C)=O)cc2)cc1 — higher, 20%
- CC(=O)NC1CC2CCCC(C1)N2Cc1ccc(C)cc1 (stereo not shown) — lower, -10.4%
- Cl.O=C1c2ccccc2C(=O)N1CC#CCN1CCN(C2CCCCC2)CC1 — lower, -11.7%
- S=C(Nc1ccccn1)NC1CCCCC1 — lower, 8.01%
- Cc1ccccc1C(=O)Nc1ccnc(-c2ccncc2)n1 — higher, 14.1%
